Measurements from the supplement of paper PMC3334620.
The full ranking holds about 33,000 sequences; the median of “E-score (-0.5 to 0.5)” is about -0.017, and the highest 2% start at about 0.3. This is one part of the list.

The sequences below were run against T1, Sut1 (UniProt P53032) (assay: PBM E-score (8-mer binding enrichment) (E-score (-0.5 to 0.5)); higher = stronger / more preferred TF binding; most listed sequences are background and not binding sites). Conditions: protein concentration: 200 nM; construct: GST-full length.
T1 sequence: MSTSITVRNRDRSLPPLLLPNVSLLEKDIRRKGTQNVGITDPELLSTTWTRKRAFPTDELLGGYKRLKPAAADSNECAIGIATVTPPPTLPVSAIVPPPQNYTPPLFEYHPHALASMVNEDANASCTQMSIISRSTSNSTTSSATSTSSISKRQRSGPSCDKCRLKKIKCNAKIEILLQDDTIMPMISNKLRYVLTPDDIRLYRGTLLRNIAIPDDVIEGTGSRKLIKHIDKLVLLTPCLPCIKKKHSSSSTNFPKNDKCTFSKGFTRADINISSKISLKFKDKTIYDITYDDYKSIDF
In short: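 Universal all-10-mer Agilent arrays, fresh or stripped once, were converted to double-stranded form by primer extension. GST-tagged yeast transcription factors from PURExpress in vitro transcription/translation, full-length or DNA-binding domain only, were applied at about 100-200 nM and detected with fluorescent anti-GST. After masliner normalisation, the Universal PBM Analysis Suite scored each ungapped eight-base word together with its reverse complement by E-score.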
With CGCAATCA the “PBM E-score” value was 0.149.
With CAGGTACG the “PBM E-score” value was -0.227.
For CTATAAGC, the “PBM E-score” value was -0.0415.
In the case of GAGACATC, the “PBM E-score” value was -0.0485.
With GACTACTA the “PBM E-score” value was 0.107.
With ATGGCTAC the “PBM E-score” value was 0.0799.
CAAGCGTC was tested, and the “PBM E-score” value was -0.147.
For AGGCGGGA, the “PBM E-score” value was -0.208.
With CATGCGGG the “PBM E-score” value was -0.175.
With GCAAGTCC the “PBM E-score” value was 0.109.
In the case of AACATGCC, the “PBM E-score” value was 0.0872.
With ATTACCAA the “PBM E-score” value was 0.0498.
CCGCTACA was tested, and the “PBM E-score” value was -0.107.
GGTACCCA was tested, and the “PBM E-score” value was -0.19.
For AAGGGCCG, the “PBM E-score” value was -0.146.
With CTCGGGCA the “PBM E-score” value was -0.0064.
For ATGACTCC, the “PBM E-score” value was 0.241.
In the case of CGAGCCGA, the “PBM E-score” value was -0.184.
With AGACCATA the “PBM E-score” value was 0.00939.
CTTAGTGA was tested, and the “PBM E-score” value was 0.0413.
For CTCTCCTC, the “PBM E-score” value was -0.374.
In the case of ACCCGCGG, the “PBM E-score” value was 0.0784.
In the case of CGTTCTAC, the “PBM E-score” value was -0.0333.
In the case of AGAAAGCC, the “PBM E-score” value was 0.0582.
For AAAGGGAT, the “PBM E-score” value was 0.0685.
For AGCCTCGA, the “PBM E-score” value was -0.185.
For GCTTACAA, the “PBM E-score” value was 0.0636.
AGTCACCG was tested, and the “PBM E-score” value was -0.192.
In the case of TACCCGCA, the “PBM E-score” value was 0.0402.
In the case of CAATGGAG, the “PBM E-score” value was -0.0112.
For CAAGAAAA, the “PBM E-score” value was 0.24.
With AGCAGCCA the “PBM E-score” value was -0.21.
For TAATGTAA, the “PBM E-score” value was 0.28.
With AGAAACCC the “PBM E-score” value was 0.0854.
In the case of CCCTGAAG, the “PBM E-score” value was -0.263.
For GACTTGAA, the “PBM E-score” value was 0.274.
CCCTGGGA was tested, and the “PBM E-score” value was -0.325.
For CAACTACA, the “PBM E-score” value was 0.181.
For ATGTACCA, the “PBM E-score” value was 0.0648.
With GCCAGCCA the “PBM E-score” value was -0.233.
For CGGTGGAC, the “PBM E-score” value was -0.0934.
CCTCCTCC was tested, and the “PBM E-score” value was -0.0996.
For GATGTGAC, the “PBM E-score” value was -0.0732.
CACTCGAG was tested, and the “PBM E-score” value was -0.0559.
With GATCGATC the “PBM E-score” value was -0.383.
With GACATGGA the “PBM E-score” value was -0.023.
In the case of CCTGGAGA, the “PBM E-score” value was -0.172.
In the case of CCCCATAC, the “PBM E-score” value was -0.232.
With CCTTGTAC the “PBM E-score” value was 0.02.
With AGTTTTGG the “PBM E-score” value was 0.147.
AGCTCAGG was tested, and the “PBM E-score” value was -0.0171.
In the case of CGTGGTAG, the “PBM E-score” value was -0.156.
For AAATCCGA, the “PBM E-score” value was 0.203.
For GTGACCTA, the “PBM E-score” value was -0.0607.
For CGCTGATC, the “PBM E-score” value was 0.0462.
AGCAATTG was tested, and the “PBM E-score” value was 0.175.
For ACGCAGCT, the “PBM E-score” value was -0.137.
GCGGTCTA was tested, and the “PBM E-score” value was -0.0531.
CCAAGGTC was tested, and the “PBM E-score” value was -0.0187.
For CATCCAGG, the “PBM E-score” value was -0.172.
For GGAACCAC, the “PBM E-score” value was -0.147.
For AGCGTATA, the “PBM E-score” value was 0.0766.
With AAGCCGGC the “PBM E-score” value was -0.0295.
With CACTATAA the “PBM E-score” value was -0.0412.
ATATACTC was tested, and the “PBM E-score” value was 0.197.
CATGCGTA was tested, and the “PBM E-score” value was -0.0829.
For AGGGCATC, the “PBM E-score” value was -0.342.
AATACTAA was tested, and the “PBM E-score” value was 0.142.
For TGCACGCA, the “PBM E-score” value was -0.215.
In the case of CCAAGAAA, the “PBM E-score” value was 0.241.
With AACGTTCA the “PBM E-score” value was -0.107.
GGTAGGAA was tested, and the “PBM E-score” value was -0.0664.
For ATCAAAAT, the “PBM E-score” value was 0.0556.
For TAACCGAA, the “PBM E-score” value was 0.153.
For CCGTCGCC, the “PBM E-score” value was 0.0379.
With ACGGACTA the “PBM E-score” value was 0.431.
In the case of GGTGAATA, the “PBM E-score” value was 0.0691.
AAACAGAC was tested, and the “PBM E-score” value was 0.145.
ATCTGATC was tested, and the “PBM E-score” value was 0.0604.
For CGCTTAAG, the “PBM E-score” value was -0.181.
For AAGACGAT, the “PBM E-score” value was 0.0734.
With ATGAGCAA the “PBM E-score” value was 0.0991.
For GCGTACTA, the “PBM E-score” value was -0.0972.
With AGCGCGCC the “PBM E-score” value was -0.013.
For AGGACAGC, the “PBM E-score” value was -0.111.
With GACACCCC the “PBM E-score” value was -0.179.
CACTAACC was tested, and the “PBM E-score” value was 0.0907.
In the case of ACAAGTGA, the “PBM E-score” value was 0.016.
In the case of CGAAGTGA, the “PBM E-score” value was -0.0287.
In the case of GCACGAGC, the “PBM E-score” value was -0.249.
For ACGTTCGG, the “PBM E-score” value was 0.0303.
With AGAAACAT the “PBM E-score” value was 0.14.
In the case of GCATAGAC, the “PBM E-score” value was -0.156.
With AGGGACCA the “PBM E-score” value was -0.223.
